Assay results as given in publication PMC6919601, “Identification of Plasmodium dipeptidyl aminopeptidase allosteric inhibitors by high throughput screening” (PLoS ONE, 2019).
About 230 (0.21%) of roughly 110,000 compounds showed an effect of 50% or more. Some of the results follow.

Target: DPAP1 (Plasmodium falciparum, UniProt Q8IIJ9)
Test: primary screen, percent inhibition; read by cleavage of a fluorogenic dipeptide substrate; higher = more effect of the substance
Set-up: species or system P. falciparum D10 trophozoite lysates; single well
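Note: 30 min substrate incubation versus DMSO and 10 µM JCP410 controls.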

Sequence of DPAP1 (Q8IIJ9 whole entry, looked up): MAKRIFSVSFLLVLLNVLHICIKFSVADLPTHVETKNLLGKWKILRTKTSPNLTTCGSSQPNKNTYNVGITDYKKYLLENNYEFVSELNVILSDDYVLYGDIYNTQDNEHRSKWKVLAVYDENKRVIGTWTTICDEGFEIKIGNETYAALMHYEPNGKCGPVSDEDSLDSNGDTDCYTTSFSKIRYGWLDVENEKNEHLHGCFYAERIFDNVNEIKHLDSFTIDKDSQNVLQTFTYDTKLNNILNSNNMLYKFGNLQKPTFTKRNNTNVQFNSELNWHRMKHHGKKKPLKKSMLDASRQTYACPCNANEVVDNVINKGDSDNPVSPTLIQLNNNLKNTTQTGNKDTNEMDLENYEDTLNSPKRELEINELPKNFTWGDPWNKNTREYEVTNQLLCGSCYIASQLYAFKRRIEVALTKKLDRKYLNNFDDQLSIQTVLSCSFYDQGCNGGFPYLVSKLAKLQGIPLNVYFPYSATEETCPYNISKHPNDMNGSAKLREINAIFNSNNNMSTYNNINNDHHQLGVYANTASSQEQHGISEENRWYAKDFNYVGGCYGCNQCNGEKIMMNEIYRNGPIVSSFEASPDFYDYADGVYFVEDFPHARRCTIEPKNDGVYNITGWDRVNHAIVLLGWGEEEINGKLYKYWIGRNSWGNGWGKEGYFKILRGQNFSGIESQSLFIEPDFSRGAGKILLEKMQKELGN

Row | Structure (SMILES) | % Inhibition @ 10 uM [%]
1 | CCCCN1C(=O)c2[nH]nc(-c3ccccc3O)c2C1c1cccc(O)c1 (stereo not drawn) | 1.82
2 | Cc1c(Cl)c(C(F)(F)F)nn1CC(=O)NCc1ccco1 | -4.24
3 | C(=C\c1nn2c(-c3ccccc3)nnc2s1)/c1ccccc1 | 7.97
4 | CC(=O)Nc1cccc(NC(=O)C2CC3CCC2C3)c1 (stereo not drawn) | 5.74
5 | O=C(Cn1ncc2c1-c1ccoc1CC2)NCc1ccccc1Cl | 0.0882
6 | CC(C)CCN1CC(C(=O)NCCC2=CCCCC2)CC1=O (stereo not drawn) | 6.86
7 | COc1ccccc1OCCn1cnc2ccccc21 | -13.3
8 | Cc1ccccc1-n1c(S)nnc1CN1CCN(C)CC1 | -0.969
9 | CCOc1ccccc1NC(=O)CN(c1ccc(OC)c(Cl)c1)S(C)(=O)=O | 3.66
10 | O=C(CCCn1c(=O)c2cccn2c2cccnc21)N1CCN(C2CCCCC2)CC1 | 3.1
11 | O=C(c1ccccc1Cl)N1CCN(c2ccccc2)CC1 | 3.48
12 | c1ccc(C(CN2CCN(c3ccccc3)CC2)c2ccccc2)cc1 | -2.21
13 | CC(C)NC(=O)CCCSc1nc(-c2ccco2)cc(C(F)(F)F)n1 | -9.37
14 | CCOc1ccc2nc(N3CCC(C(=O)NC(C)CC)CC3)sc2c1 (stereo not drawn) | -5.19
15 | COc1cccc(N2C(=O)C(O)=C(C(=O)c3ccccc3)C2c2ccc(O)c(OC)c2)c1 (stereo not drawn) | -0.63
16 | COC(=O)C1=CN(Cc2ccc(Cl)cc2)C=C(C(=O)OC)C1c1ccc2c(c1)OCO2 | 6.48
17 | O=C(Nc1ccccc1C(=O)NCc1ccco1)c1ccc(-c2ccccc2)cc1 | -5.6
18 | COc1cc(OC)cc(C(=O)NCc2nc(-c3ccccc3)no2)c1 | -1.22
19 | Cc1ccc2c(nc3s/c(=C\c4ccccc4Cl)c(=O)n32)c1C | 5.16
20 | COc1ccc(Cl)cc1-c1nc(N)nc(NCCc2ccccc2)n1 | -2.65
21 | COc1c(Cl)cc(Cl)cc1/C=C(\C#N)c1nn(-c2ccccc2)c(N)c1C#N | 9.09
22 | Cc1c(C(=O)NCCc2ccc(Cl)cc2)oc2ccc(S(=O)(=O)N3CCC(C)CC3)cc12 | 12.1
23 | COc1ccc(OC)c(CN2CCN(c3cccc(C)c3C)CC2)c1 | 3.16
24 | COc1ccccc1CNC1=NS(=O)(=O)C(c2ccc(C)cc2)=C1C | -3.08
25 | CCOC(=O)C(=O)CC(=O)c1ccc(CC)cc1 | -7.02
26 | Nc1nonc1-c1nc2ccccc2n1Cc1cc2c(cc1Br)OCO2 | -1.11

Row | Structure (SMILES) | % Inhibition @ 10 uM [%]
27 | COc1ccc(CCN2C(=O)CSC2c2ccc(Cl)cc2)cc1OC (stereo not drawn) | -20
28 | CS(=O)(=O)n1nc(-c2ccco2)nc1SCc1ccccc1 | -6.55
29 | CC(C)C[C@H](C(=O)O)N1Cc2ccccc2C1=O | 0.708
30 | CC1C(C#N)=C(N)SC(N)=C1C#N | 67.5
31 | O=C(NCCCN1CCN(Cc2ccccc2)CC1)C1CCN(S(=O)(=O)N2CCCC2)CC1 | 3.79
32 | COc1cccc2c1Oc1ncccc1N(C(=O)CCC(=O)NCCN(C)C)C2 | 12.1
33 | Fc1ccc(-c2cn3c4ccccc4n(CCN4CCCC4)c3n2)cc1 | 3.74
34 | COc1ccc(NC(=O)CNS(=O)(=O)c2ccc(Cl)cc2)cc1 | -5.49
35 | CCc1cccc(CC)c1NC(=O)c1ccc2c(c1)OCO2 | 1.88
36 | O=C(Nc1ccccc1F)c1ccc(Cn2cc(Br)cn2)cc1 | -1.08
37 | CC1CN(C2CCc3ccccc3C2)CC(C)O1 (stereo not drawn) | -5.44
38 | CCN1CCC(NC2C3CC4CC(C3)CC2C4)CC1 (stereo not drawn) | -1.78
39 | Cc1ccc(S(=O)(=O)CNC(=S)c2ccccc2)cc1 | 2.22
40 | Fc1ccc(Br)cc1C1C=C(c2ccc(Br)s2)Nc2ncnn21 (stereo not drawn) | 1.73
41 | CCC(=O)CC(c1ccc([N+](=O)[O-])cc1)c1c(O)oc2ccccc2c1=O (stereo not drawn) | -4.96
42 | O=C(O)C1C2CCC(C2)C1C(=O)Nc1ccc(Br)cc1F (stereo not drawn) | -6.08
43 | COCCCNC(=O)c1cc(O)nc2ccc(S(=O)(=O)N3CCCCCC3)cc12 | 5.7
44 | CC(C)(C)C(/C=C\c1ccc(Cl)cc1Cl)n1nnnc1C(c1ccc(Cl)cc1)N1CCOCC1 (stereo not drawn) | 6.61
45 | COc1ccc(/C=C/c2nc(=O)c3ccccc3o2)cc1 | -0.171
46 | CCOc1ccc(NC2=C(Cl)C(=O)N(Cc3ccccc3)C2=O)cc1 | 1.08
47 | CC(C)(C)NC(=O)COc1ccc2ccccc2c1Br | 0.755
48 | Cc1cc(=O)oc2c3c(ccc12)OCN(CCc1ccccc1)C3 | -2.65
49 | O=C1c2n[nH]c(-c3ccccc3O)c2C(c2ccccc2F)N1CC1CCCO1 (stereo not drawn) | 5.17
50 | CSC1=C(C#N)C(c2ccc(F)cc2)CC(=O)N1 (stereo not drawn) | 5.58
51 | CCOC(=O)N1CCN(CC(=O)Nc2cc(C)on2)CC1 | 1.03
